Test results: PubChem BioAssay AID1745853 (National Center for Advancing Translational Sciences (NCATS), 2022)
“And” between values parts separate entries of the source, which are not always exact repeats. Equal values may be shown once. The list shows a part of the results. Further columns of the screen follow, without active or inactive calls.

Experiments:
Test in all cases: Primary Screen for Target Class Profiling of Small Molecule Inhibitors of Methyltransferases
[1] = target: Glycine N-methyltransferase (Homo sapiens) (UniProt Q14749); settings: purified enzyme, MTase-Glo SAH luminescence; measured here: GNMT inhibition; at 40 µM; stronger effect = lower value
How it was run: (§1)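 Each enzyme was assayed with SAM and its substrate. SAH formation detected by MTase-Glo luminescence; single-point 40 uM screen[…].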

[2] = target: Guanidinoacetate N-methyltransferase (Homo sapiens) (UniProt Q14353); settings: purified enzyme, MTase-Glo SAH luminescence; measured here: GAMT inhibition; at 40 µM; stronger effect = lower value
How it was run: as §1

[3] = target: Histamine N-methyltransferase (Homo sapiens) (UniProt P50135); settings: purified enzyme, MTase-Glo SAH luminescence; measured here: HNMT inhibition; at 40 µM; stronger effect = lower value
How it was run: as §1

[4] = target: Nicotinamide N-methyltransferase (Homo sapiens) (UniProt P40261); settings: purified enzyme, MTase-Glo SAH luminescence; measured here: NNMT inhibition; at 40 µM; stronger effect = lower value
How it was run: as §1

[5] = target: Phenylethanolamine N-methyltransferase (Homo sapiens) (UniProt P11086); settings: purified enzyme, MTase-Glo SAH luminescence; measured here: PNMT inhibition; at 40 µM; stronger effect = lower value
How it was run: as §1
% is set by controls: 0 for no effect and ±100 for the full control effect.

SMILES | activity change, negative = inhibition [1] | activity change, negative = inhibition [2] | activity change, negative = inhibition [3] | activity change, negative = inhibition [4] | activity change, negative = inhibition [5]
N[C@@H](Cc1ccc(O)c(O)c1)C(=O)O | -32.6% | 6.08% | 0.279% | -5.35% | 4.56%
O=C1NC2CCCCN2C12CCN(CCCN1c3ccccc3CCc3ccc(Cl)cc31)CC2 (stereo not given) | 2.9% | 4.85% | -74.4% | -46.9% | 3.5%
COCCCNC(=O)C1(CCO)CCN(c2ncccn2)C1 (stereo not given) | -0.602% | -3.03% | 1.03% | 1.73% | 0.472%
O=C(CCc1nnc2n(CCc3ccccc3)c(=O)c3ccccc3n12)NCc1ccccc1 | -9.13% | 2.36% | -0.563% | -0.974% | -4.12%
CCCCc1ncc(/C=C(\Cc2cccs2)C(=O)O)n1Cc1ccc(C(=O)O)cc1 | 2.5% and -0.303% | 16.3% and 0.716% | 13.9% and 5.85% | -1.41% and -9.97% | 3% and -2.1%
O=C(CCc1nnc2n(Cc3ccccc3Cl)c(=O)c3ccccc3n12)NCCc1ccccc1 | -12.1% | 1.74% | 0.907% | -9.29% | -5.67%
Cc1oc2ccn(Cc3cccc(F)c3)c(=O)c2c1C(=O)NC1CCCC1 | -14.8% | -10.4% | -8.42% | -38.6% | -32.1%
Cc1ccc(NC(=O)CSc2nnc3n(CC(C)C)c(=O)c4ccc(Cl)cc4n23)c(C)c1 | -1.77% | -2.57% | 2.55% | -4.27% | -4.62%
C[S+](=O)([O-])NC1CC2(CCN(C(=O)c3ccccc3)CC2)c2ccccc21 (stereo not given) | -4.85% | -1.91% | -1.49% | -8.77% | 3.87%
CC(C)CCN1C(=O)c2ccc(-c3ccccc3)n2CC1(C)C(=O)NC1CCCCC1 (stereo not given) | 2.71% | 0.459% | 3.82% | 3.56% | 1.9%
Cc1cc(NC(=O)N2CCn3cccc3C2Cc2ccccc2)ccc1Br (stereo not given) | 9.67% | 0% | 8.91% | -1.14% | 4.43%
Fc1cccc(-c2cc(-c3cn[nH]c3)c3cncn3c2)c1 | -26.4% | -15% | -26.7% | -25.8% | -17.1%
CCN(CC)CCNC(=O)CCc1nnc2n(CCc3ccccc3)c(=O)c3ccccc3n12 | -3.73% | 0% | -33.4% | 4.18% | -0.416%
O=C1Nc2ccccc2CC12CCCN2C1COC1 (stereo not given) | -6.32% | -8.79% | -3.1% | -9.74% | -18.5%
COC(=O)c1cc2n(n1)CC(C)(C(=O)NC1CCCCCC1)N(c1ccc(Cl)cc1C)C2=O (stereo not given) | 1.09% | 4.53% | 2.95% | 0% | 0.217%
Cc1cccc(S(=O)(=O)N2CCCC(Cn3c(C4CC4)nc4cccnc43)C2)c1 (stereo not given) | -30.4% | -4.14% | -5.47% | -12.5% | -8.62%
CCOC(=O)C1CCN(C(=O)C2CCc3nnc(CN[S+](C)(=O)[O-])n32)CC1 (stereo not given) | 0.378% | -1.17% | 2.12% | 1.51% | -1.39%
CCCCN1C(=O)c2cc(C(=O)NCc3ccc(F)cc3)nn2CC1(C)C(=O)NC1CCCC1 (stereo not given) | 2.6% | 0% | 2.71% | 0.129% | 1.6%
C#CCN(C)C(=O)C[C@@H]1c2nc(NC(=O)CCCCC)sc2C[C@@H]2[C@](C)(CO)[C@H](O)CC[C@]21C | -3.71% | -3.86% | -4.07% | -6.25% | -5.07%
C/C=C(/C=C(C)/C=C/C=C/C=C(\C)C(=O)C12OC1C(O)(CCO)NC2=O)C(=O)OC (stereo not given) | -4.08% | 3.87% | 1.29% | -8.99% | 1.46%
CC(C)Cn1c(=O)c2ccccc2n2c(CCC(=O)N3CCN(C(c4ccccc4)c4ccccc4)CC3)nnc12 | -9.03% | 0.964% | 9.06% | -17.9% | 0.792%
CCOC(=O)Cn1c(=O)oc2cc(S(=O)(=O)NCCc3ccc(OCC)c(OCC)c3)ccc21 | -4.62% | 3.21% | -1.77% | 5.18% | -6.95%
CN(CCN1C(=O)c2cc3occc3n2CC1(C)C(=O)NC1CCCCCCC1)C1CCCCC1 (stereo not given) | 1.02% | 0.241% | -1.25% | 19.4% | -2.91%
CCCn1c(=O)c2ccc(C(=O)NC(C)C)cc2n2c(SCC(=O)NC(C)(C)C)nnc12 | 1.53% | 2.66% | 7.87% | -4.17% | 1.21%
CNc1ccc([N+](=O)[O-])c(Nc2ccc3[nH]ncc3c2)n1 | -10.8% | -1.2% | 4.16% | -18.9% | -6.06%
O=S(=O)(c1ccccc1)c1nnn2c1nc(NC1CCCCC1)c1cc(Cl)ccc12 | -1.65% | 0% | 3.35% | 1.7% | -2.88%
CC(C(=O)NCc1ccc2c(c1)OCO2)n1ccc2cc(S(=O)(=O)N3CCCC3)ccc21 (stereo not given) | -0.048% | 4.47% | 2% | -6.6% | 0.986%
c1ccc(-c2[nH]nc3ncc(-c4cn[nH]c4)nc23)cc1 | -80% | -34.3% | -46% | -58.7% | -34.1%
O=C(NCCc1ccc(Cl)cc1)C1CCc2nnc(CN[S+](=O)([O-])c3ccccc3Cl)n21 (stereo not given) | -1.72% | -1.73% | -3.22% | -0.669% | 4.08%
CC1(C(=O)NC2CCCC2)Cn2c(cc3ccccc32)C(=O)N1CCc1cccs1 (stereo not given) | 1.32% | 0% | 2.28% | 2.98% | 0.943%
